# Data: the supplement of paper PMC8728848
# The other results are listed elsewhere or left out.
# B1: PpFlo1 (Pichia pastoris) (protein)
# chain: MGSSHHHHHHSSGLVPRGSHMQESGDGDISDSAYACDIDATRYDGFNATIYEFQPGDGRLTRDPVFMSTGYLNRTQLHSITGVTDPGFSIYTPGVPTTTLYGIPNVNWENLLLELKGYFRAEVSGDYGLSLRNIDDSAILFFGKETAFQCCNENSISNEASTDYSLFTIFRQEGDETTNLDSFTYTQYLEAGKYYPVRTFFVNIERHAVFNFTMTLPDGTELTDFHNYIYQFGALDEEQCQA
# How the values were obtained:
# Assay in all cases: glycan array binding signal (z-score within array); higher = stronger binding
# Conditions in all cases: glycan notation: IUPAC condensed, linker removed
# [1] = target: Neu5Ac(a2-6)Gal(b1-4)GlcNAc(b1-2)Man(a1-3)[GlcNAc(b1-4)][Neu5Ac(a2-6)Gal(b1-4)GlcNAc(b1-2)Man(a1-6)]Man(b1-4)GlcNAc(b1-4)GlcNAc
# Method in brief: (§1)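 The Consortium for Functional Glycomics database supplied 3228 glycan arrays, of which those lacking an available protein sequence were dropped. The binding signal, a within-array Z-score, was averaged across arrays of the same protein sequence and across linkers. Negative scores can be read as non-binding.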
# [2] = target: Neu5Ac(a2-6)Gal(b1-4)GlcNAc(b1-2)Man(a1-3)[Man(a1-6)]Man(b1-4)GlcNAc(b1-4)GlcNAc
# Method in brief: as §1
# [3] = target: Neu5Ac(a2-6)Gal(b1-4)GlcNAc(b1-2)Man(a1-3)[Neu5Ac(a2-3)Gal(b1-4)GlcNAc(b1-2)Man(a1-6)]Man(b1-4)GlcNAc(b1-4)GlcNAc
# Method in brief: as §1
# [4] = target: Neu5Ac(a2-6)Gal(b1-4)GlcNAc(b1-2)Man(a1-3)[Neu5Ac(a2-6)Gal(b1-4)GlcNAc(b1-2)Man(a1-6)]Man(b1-4)GlcNAc(b1-4)GlcNAc
# Method in brief: as §1
# [5] = target: Neu5Ac(a2-6)Gal(b1-4)GlcNAc(b1-2)Man(a1-3)[Neu5Ac(a2-6)Gal(b1-4)GlcNAc(b1-2)Man(a1-6)]Man(b1-4)GlcNAc(b1-4)[Fuc(a1-6)]GlcNAc
# Method in brief: as §1
# [6] = target: Neu5Ac(a2-6)Gal(b1-4)GlcNAc(b1-2)Man(a1-6)Man(b1-4)GlcNAc(b1-4)GlcNAc
# Method in brief: as §1
# [7] = target: Neu5Ac(a2-6)Gal(b1-4)GlcNAc(b1-2)Man(a1-6)[Gal(b1-4)GlcNAc(b1-2)Man(a1-3)]Man(b1-4)GlcNAc(b1-4)GlcNAc
# Method in brief: as §1
# [8] = target: Neu5Ac(a2-6)Gal(b1-4)GlcNAc(b1-2)Man(a1-6)[GlcNAc(b1-2)Man(a1-3)]Man(b1-4)GlcNAc(b1-4)GlcNAc
# Method in brief: as §1
# [9] = target: Neu5Ac(a2-6)Gal(b1-4)GlcNAc(b1-2)Man(a1-6)[Man(a1-3)]Man(b1-4)GlcNAc(b1-4)GlcNAc
# Method in brief: as §1
# [10] = target: Neu5Ac(a2-6)Gal(b1-4)GlcNAc(b1-2)[Neu5Ac(a2-6)Gal(b1-4)GlcNAc(b1-4)]Man(a1-3)[GlcNAc(b1-4)][Neu5Ac(a2-6)Gal(b1-4)GlcNAc(b1-2)[Neu5Ac(a2-6)Gal(b1-4)GlcNAc(b1-6)]Man(a1-6)]Man(b1-4)GlcNAc(b1-4)GlcNAc
# Method in brief: as §1
# [11] = target: Neu5Ac(a2-6)Gal(b1-4)GlcNAc(b1-2)[Neu5Ac(a2-6)Gal(b1-4)GlcNAc(b1-4)]Man(a1-3)[GlcNAc(b1-4)][Neu5Ac(a2-6)Gal(b1-4)GlcNAc(b1-4)Man(a1-6)]Man(b1-4)GlcNAc(b1-4)GlcNAc
# Method in brief: as §1
# [12] = target: Neu5Ac(a2-6)Gal(b1-4)GlcNAc(b1-2)[Neu5Ac(a2-6)Gal(b1-4)GlcNAc(b1-6)]Man(a1-6)[Neu5Ac(a2-6)Gal(b1-4)GlcNAc(b1-2)Man(a1-3)][GlcNAc(b1-4)]Man(b1-4)GlcNAc(b1-4)GlcNAc
# Method in brief: as §1
# [13] = target: Neu5Ac(a2-6)Gal(b1-4)GlcNAc(b1-3)Gal(b1-3)GlcNAc
# Method in brief: as §1
# [14] = target: Neu5Ac(a2-6)Gal(b1-4)GlcNAc(b1-3)Gal(b1-4)GlcNAc
# Method in brief: as §1
# [15] = target: Neu5Ac(a2-6)Gal(b1-4)GlcNAc(b1-3)Gal(b1-4)GlcNAc(b1-2)Man(a1-3)[Neu5Ac(a2-6)Gal(b1-4)GlcNAc(b1-3)Gal(b1-4)GlcNAc(b1-2)Man(a1-6)]GalNAc
# Method in brief: as §1
# [16] = target: Neu5Ac(a2-6)Gal(b1-4)GlcNAc(b1-3)Gal(b1-4)GlcNAc(b1-3)Gal(b1-4)GlcNAc
# Method in brief: as §1
# [17] = target: Neu5Ac(a2-6)Gal(b1-4)GlcNAc(b1-3)Gal(b1-4)GlcNAc(b1-3)Gal(b1-4)GlcNAc(b1-2)Man(a1-3)[Neu5Ac(a2-6)Gal(b1-4)GlcNAc(b1-3)Gal(b1-4)GlcNAc(b1-3)Gal(b1-4)GlcNAc(b1-2)Man(a1-6)]GalNAc
# Method in brief: as §1
# [18] = target: Neu5Ac(a2-6)Gal(b1-4)GlcNAc(b1-3)Gal(b1-4)GlcNAc(b1-3)GalNAc
# Method in brief: as §1
# [19] = target: Neu5Ac(a2-6)Gal(b1-4)GlcNAc(b1-3)Gal(b1-4)GlcNAc(b1-3)[Neu5Ac(a2-6)Gal(b1-4)GlcNAc(b1-3)Gal(b1-4)GlcNAc(b1-6)]GalNAc
# Method in brief: as §1
# [20] = target: Neu5Ac(a2-6)Gal(b1-4)GlcNAc(b1-3)Gal(b1-4)GlcNAc(b1-6)[Gal(b1-3)]GalNAc
# Method in brief: as §1
# [21] = target: Neu5Ac(a2-6)Gal(b1-4)GlcNAc(b1-3)Gal(b1-4)[Fuc(a1-3)]GlcNAc(b1-3)Gal(b1-4)[Fuc(a1-3)]GlcNAc
# Method in brief: as §1
# [22] = target: Neu5Ac(a2-6)Gal(b1-4)GlcNAc(b1-3)GalNAc
# Method in brief: as §1
# [23] = target: Neu5Ac(a2-6)Gal(b1-4)GlcNAc(b1-3)[Neu5Ac(a2-6)Gal(b1-4)GlcNAc(b1-6)]GalNAc
# Method in brief: as §1
# [24] = target: Neu5Ac(a2-6)Gal(b1-4)GlcNAc(b1-6)GalNAc
# Method in brief: as §1
# [25] = target: Neu5Ac(a2-6)Gal(b1-4)GlcNAc(b1-6)[Gal(b1-3)GlcNAc(b1-3)]Gal(b1-4)Glc
# Method in brief: as §1
# [26] = target: Neu5Ac(a2-6)Gal(b1-4)GlcNAc(b1-6)[Gal(b1-3)]GalNAc
# Method in brief: as §1
# [27] = target: Neu5Ac(a2-6)Gal(b1-4)GlcNAc6S
# Method in brief: as §1
# Neu5Ac(a2-6)GalNAc = target: Neu5Ac(a2-6)GalNAc
# Method in brief: as §1
# [28] = target: Neu5Ac(a2-6)GalNAc(b1-4)GlcNAc
# Method in brief: as §1
# [29] = target: Neu5Ac(a2-6)GalNAc(b1-4)GlcNAc6S
# Method in brief: as §1
# [30] = target: Neu5Ac(a2-6)GlcNAc(b1-4)GlcNAc
# Method in brief: as §1
# [31] = target: Neu5Ac(a2-6)GlcNAc(b1-4)GlcNAc(b1-4)GlcNAc
# Method in brief: as §1
# Neu5Ac(a2-8)Neu5Ac = target: Neu5Ac(a2-8)Neu5Ac
# Method in brief: as §1
# [32] = target: Neu5Ac(a2-8)Neu5Ac(a2-3)Gal(b1-3)GalNAc(b1-4)[Neu5Ac(a2-3)]Gal(b1-4)Glc
# Method in brief: as §1
# [33] = target: Neu5Ac(a2-8)Neu5Ac(a2-3)Gal(b1-3)GalNAc(b1-4)[Neu5Ac(a2-8)Neu5Ac(a2-3)]Gal(b1-4)Glc
# Method in brief: as §1
# [34] = target: Neu5Ac(a2-8)Neu5Ac(a2-3)Gal(b1-4)Glc
# Method in brief: as §1
# [35] = target: Neu5Ac(a2-8)Neu5Ac(a2-3)Gal(b1-4)GlcNAc
# Method in brief: as §1
# [36] = target: Neu5Ac(a2-8)Neu5Ac(a2-3)[Gal(b1-3)GalNAc(b1-4)]Gal(b1-4)Glc
# Method in brief: as §1
binder,measurement,setting,value
B1,glycan array binding signal (z-score),[1],-0.336
same,glycan array binding signal (z-score),[2],-0.182
same,glycan array binding signal (z-score),[3],-0.156
same,glycan array binding signal (z-score),[4],0.511
same,glycan array binding signal (z-score),[5],0.148
same,glycan array binding signal (z-score),[6],0.134
same,glycan array binding signal (z-score),[7],-0.159
same,glycan array binding signal (z-score),[8],0.632
same,glycan array binding signal (z-score),[9],-0.445
same,glycan array binding signal (z-score),[10],-0.333
same,glycan array binding signal (z-score),[11],-0.564
same,glycan array binding signal (z-score),[12],0.318
same,glycan array binding signal (z-score),[13],-0.559
same,glycan array binding signal (z-score),[14],1.01
same,glycan array binding signal (z-score),[15],0.354
same,glycan array binding signal (z-score),[16],-0.416
same,glycan array binding signal (z-score),[17],-0.069
same,glycan array binding signal (z-score),[18],-0.424
same,glycan array binding signal (z-score),[19],-0.175
same,glycan array binding signal (z-score),[20],-0.511
same,glycan array binding signal (z-score),[21],0.701
same,glycan array binding signal (z-score),[22],-0.082
same,glycan array binding signal (z-score),[23],0.261
same,glycan array binding signal (z-score),[24],-0.171
same,glycan array binding signal (z-score),[25],0
same,glycan array binding signal (z-score),[26],-0.094
same,glycan array binding signal (z-score),[27],2.26
same,glycan array binding signal (z-score),Neu5Ac(a2-6)GalNAc,0.072
same,glycan array binding signal (z-score),[28],-0.177
same,glycan array binding signal (z-score),[29],-0.213
same,glycan array binding signal (z-score),[30],-0.29
same,glycan array binding signal (z-score),[31],-0.209
same,glycan array binding signal (z-score),Neu5Ac(a2-8)Neu5Ac,0.146
same,glycan array binding signal (z-score),[32],-0.081
same,glycan array binding signal (z-score),[33],-0.103
same,glycan array binding signal (z-score),[34],0.631
same,glycan array binding signal (z-score),[35],-0.504
same,glycan array binding signal (z-score),[36],-0.322
